Test results: PMC4336329 (PLoS ONE, 2015)
Hit rate of the full screen: of about 310,000 compounds, about 14,000 (4.5%) showed an effect of 50% or more. Effects have a minus sign here. The list shows a part of the results.

Target: human ether-à-go-go-related gene (hERG) potassium channel (human, UniProt Q12809)
Assay: primary screen, population patch clamp on CHO cells stably expressing hERG
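Note: peak tail current of the secondary pulse compared with the same well before compound.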

human ether-à-go-go-related gene (hERG) potassium channel, sequence (Q12809 whole entry, looked up): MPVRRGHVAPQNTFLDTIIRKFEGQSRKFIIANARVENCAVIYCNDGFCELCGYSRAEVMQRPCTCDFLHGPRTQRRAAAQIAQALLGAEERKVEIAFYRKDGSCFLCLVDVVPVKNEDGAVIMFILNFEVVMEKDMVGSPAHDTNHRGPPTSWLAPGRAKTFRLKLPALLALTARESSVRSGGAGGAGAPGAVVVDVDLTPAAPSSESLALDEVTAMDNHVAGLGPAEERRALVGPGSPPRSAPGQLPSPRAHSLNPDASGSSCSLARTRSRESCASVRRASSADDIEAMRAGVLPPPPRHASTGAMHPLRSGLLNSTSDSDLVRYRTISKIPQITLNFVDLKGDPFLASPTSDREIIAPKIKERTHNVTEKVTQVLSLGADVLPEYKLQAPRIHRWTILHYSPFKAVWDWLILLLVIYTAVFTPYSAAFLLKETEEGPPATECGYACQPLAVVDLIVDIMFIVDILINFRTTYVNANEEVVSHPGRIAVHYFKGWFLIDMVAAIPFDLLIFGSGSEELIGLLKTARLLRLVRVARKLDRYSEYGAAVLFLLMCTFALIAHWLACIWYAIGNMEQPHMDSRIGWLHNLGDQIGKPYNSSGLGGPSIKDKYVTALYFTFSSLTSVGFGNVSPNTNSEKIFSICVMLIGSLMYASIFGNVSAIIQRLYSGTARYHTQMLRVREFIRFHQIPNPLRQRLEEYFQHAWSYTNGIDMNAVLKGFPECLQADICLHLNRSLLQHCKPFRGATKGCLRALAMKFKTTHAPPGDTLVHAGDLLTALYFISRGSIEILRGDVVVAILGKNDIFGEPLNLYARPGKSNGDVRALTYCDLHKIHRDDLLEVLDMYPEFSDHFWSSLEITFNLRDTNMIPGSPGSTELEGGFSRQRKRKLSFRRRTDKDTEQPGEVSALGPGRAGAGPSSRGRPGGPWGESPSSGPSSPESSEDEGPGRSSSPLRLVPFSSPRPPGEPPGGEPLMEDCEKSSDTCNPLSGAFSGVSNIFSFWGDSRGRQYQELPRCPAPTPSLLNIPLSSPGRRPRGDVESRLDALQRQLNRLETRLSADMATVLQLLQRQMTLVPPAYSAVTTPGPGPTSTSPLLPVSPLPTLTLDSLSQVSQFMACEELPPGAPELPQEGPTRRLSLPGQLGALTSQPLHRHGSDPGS

SMILES	hERG current change (%, negative = inhibition) at 10uM
O=C(c1ccco1)N1CCN(C(=O)C2Cc3ccccc3CN2S(=O)(=O)c2ccc(F)cc2)CC1 (centres unmarked)	-70.6%
COC(=O)c1ccc(C2/C(=C(/O)c3ccc(OC)cc3)C(=O)C(=O)N2CC2CCCO2)cc1 (centres unmarked)	13.4%
COc1cccc(COC(=O)c2c(C)nn(-c3ccccc3)c2Cl)c1OC	12.2%
CC(OC(=O)c1cccnc1Cl)C(=O)Nc1ccc2c(c1)OCCO2 (centres unmarked)	-2.19%
COc1ccc(N2CCN(C(=O)C3CCCN(S(=O)(=O)c4c(C)noc4C)C3)CC2)cc1 (centres unmarked)	-59.9%
CCn1cc(C(=O)NCCCOC(C)C)c(=O)c2cc(S(=O)(=O)N3CCCC3)ccc21	-19.9%
Cn1c(=O)[nH]c(=O)c2[nH]c(CN3CCN(Cc4ccccc4)CC3)nc21	-7.24%
O=C(O/N=C(/c1ccccc1)c1ccncc1)c1cccc(F)c1	12.3%
Cc1cc(C)c(C)c(S(=O)(=O)N2CCC(C(=O)NCCCN3CCCC3=O)CC2)c1C	-70%
CCCCOC(=O)Nc1ccc(S(=O)(=O)Nc2onc(C)c2C)cc1	23.1%
CCCCC(=O)Nc1ccc(C(=O)Nc2cc(C(F)(F)F)ccc2Cl)cc1	25.6%
N#Cc1c(N(CCO)CCO)nc(N)c2c(N)nc3c(c12)CC(=O)N3Cc1cccs1	-38.2%
CCC1(C)Cc2ccccc2-c2nc(NCCO)n(-c3ccccc3)c(=O)c21 (centres unmarked)	-28.9%
CN(CC(=O)Nc1ccc(Cl)c(C(F)(F)F)c1)C(=O)CNC(=O)C1CCCCC1	-31.5%
COc1cc(C=C2C(=O)NC(=O)NC2=O)ccc1O	17.5%
CCCn1c(=O)c2[nH]c(-c3ccc(S(=O)(=O)O)cc3)nc2n(CCC)c1=O	15.6%
O=C(CCN1CCOCC1)c1ccc(Cl)cc1	28.3%
CCOC(=O)c1ccc(-n2c(CN3CCN(CC)CC3)nc3ccc([N+](=O)[O-])cc3c2=O)cc1	-55%
COc1cccc(NC(=S)NNC(=O)Cn2nc(C(F)F)cc2C(F)F)c1	17.4%
O=C(Nc1ccccc1C(=O)NC1CCCC1)NC1CCCC1	7.05%
Cc1ccc(-c2cc(C(=O)Nc3c(C)n(C)n(-c4ccccc4)c3=O)[nH]n2)c(O)c1C	-6.25%
COc1ccc(OCCOc2cccc(C=C3C(=O)NC(=O)NC3=O)c2)cc1	17.3%

SMILES	hERG current change (%, negative = inhibition) at 10uM
COCCNC(=O)Cc1c(C)c2c(cc(C)c3c(C)coc32)oc1=O	-2.11%
O=c1cc(-c2ccc(O)c(O)c2)oc2cc(O)cc(O)c12	9.88%
O=C(NCc1ccccn1)C1CCN(S(=O)(=O)c2ccccc2F)CC1	-8.17%
CN(CC(=O)Nc1ccc(Cl)c(C(F)(F)F)c1)C(=O)CCCNC(=O)c1ccc(Cl)cc1	-52.2%
O=C(c1nc2ccccc2s1)N1CCN(c2ccccn2)CC1	-30.9%
CCOC(=O)c1c(N)sc2c1CCCC2	-5.89%
COC(=O)Cc1ccc(NC(=S)NCc2ccccc2OC)cc1	12%
Cn1nc(C(=O)NC2CCCC2)c2ccccc2c1=O	1.63%
Cc1ccc(S(=O)(=O)Nc2nc(N)n(-c3ccccc3)n2)cc1	21.2%
COc1cccc(/C=C2\NC(=O)NC2=O)c1O	17.9%
CCc1cc(C(=O)c2ccc(OC)cc2)c(NC(=O)CN2CCCCC2)s1	5%
Cc1nc2ccccc2c2nc(NC(=O)Cc3ccccc3)nn12	-14.7%
CCOC(=O)CCCNC(=O)CSc1nnc(-c2ccccc2)c(-c2ccccc2)n1	-48.8%
COc1cc(/C=N/NC(=O)Cn2cnc3c2c(=O)n(C)c(=O)n3C)ccc1O	18.1%
Cc1nc2ccc(Cl)cc2c(=O)n1-c1ccccc1Cl	5.06%
COc1cccc(CC(=O)N2CCN(Cc3cccc(Cl)c3)CC2)c1	-28.3%
Cc1c(CN(C)C(=O)CSc2nc(-c3ccco3)cc(C(F)(F)F)n2)cnn1C	-13.3%
CC/C(=N\N1CCCCCC1)c1c(O)n(-c2ccccc2C)c(=O)[nH]c1=O	-15.7%
CC(C)c1c(O)c2c(n(-c3ccccc3)c1=O)CCCC2	-6.37%
COc1ccc(-c2csc(Nc3ccc(S(=O)(=O)Nc4cc(C)on4)cc3)n2)cc1	19.7%
COc1ccc(C(=O)NC2CCCN(Cc3ccccc3F)C2)c(OC)c1OC (centres unmarked)	-0.0609%
Cn1c(C(=O)NCc2cccs2)cc2c(=O)n(C)c3ccccc3c21	4.8%
